Data taken from the supplement of paper PMC10126150.
Values marked as one replicate rest on one cluster of the flow cell; about a third of the high ones do not repeat.

System: ATP
Assay: switch fluorescence ratio, 500 uM ATP over buffer (Cy3 cluster intensity, sum of 5 cycles each) (fold (ratio)); higher = stronger signal-on switching upon ATP binding; sequences stand for … in TCGTCGGCAGCGTCAGATGTGTATAAGAGACAGTTTTTTTTTTTTTTTTTTTTTTTTT…TC
Details: aptamer strand: ATP DNA aptamer (quencher-CACCTGGGGGAGTATTGCGGAGGAAGG + anchor), 100 nM annealed; ATP concentration: 500 uM; one replicate
Summary of the method: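 Clusters carrying Cy3-labelled switching strands on a modified Illumina MiSeq flow-cell were annealed to 100 nM quencher-labelled ATP aptamer and imaged in selection buffer. They were imaged again after 15 min with 500 uM ATP at 22 °C, over five buffer/ATP cycles with NaOH stripping and re-annealing in between. For each cluster, the fluorescence ratio is the summed Cy3 intensity of the target cycles divided by that of the buffer cycles, averaged per switch-domain sequence. Clusters outside 100-1000 RFU were left out.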
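Note: ATP exposure 15 min at 22 °C before imaging.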

Sequence | switch fluorescence ratio
AAAAGACGGA | 1.01
GAAGCCGTTG | 0.987
GGATAACGTT | 1.01
GTGTGCCGTC | 1.04
GACGCGACGG | 1.07
CAAGCGGTCC | 1.14
GTCACCCAGC | 1.27
AAGTACGGT | 1.3
CGTTACGGA | 1.04
TTCGTGAATG | 0.977
AGGTAACTCG | 0.993
CTGGTACGGT | 1.03
AGTTACGATG | 1.03
TAGTAGAAAT | 0.984
GGATTCGGTT | 0.979
GATTCAATGT | 1.01
CATTCGTAAT | 4.97
TGTGATTTT | 0.964
AACATATTTT | 1.03
GTACGAAGTA | 0.983
TCAGTCGGGG | 0.991
GCACATAGTG | 0.991
AAGTAGGCAG | 1.07
ACAGAGACTA | 1.05
TGTTATTGGA | 1.04
TTTACAGGAG | 0.999

Sequence | switch fluorescence ratio
GGGACAACGC | 1.02
CCATACTGCA | 1.21
TCATACGGCT | 1.03
GGTTACGCA | 1.07
CGGAAAGTTA | 0.983
GAAACAGCTA | 1.05
GGGACCAGAA | 0.973
GCTGAATAT | 1.01
GGGCCGGGG | 0.967
AAGTGAATCT | 1.04
ACCGTTATTG | 1.02
TCTCCGTAGA | 1.13
CCACTTACCA | 1.23
TAAATGGAGT | 0.97
CACCTTATAA | 1.03
GTTTAAGCAT | 0.973
GGTGATTACC | 0.966
GACCTGCGAA | 1.13
GGGAATATTG | 0.973
TTACCGGCAG | 0.964
ATCAAAAAGG | 1.02
ATGTGGCCT | 0.936
GCGGGCGGCA | 0.985
CACAGGCTAC | 1.39
TAGTAGTCGT | 1
CATGGCAAT | 1.77

Sequence | switch fluorescence ratio
GTTCTGAAGA | 1.03
CTGATGATCC | 1.04
GGTGCATACG | 0.991
ACATGACAGG | 1.08
TCTGCGAGCC | 1.18
AGGGCTAATT | 1.01
AATCGGGCGA | 1.03
TTCAATTCTT | 0.993
CTCAGTTCGT | 1.02
CTGGGGACG | 0.816
CTTTGGTTAT | 1.03
TTCTGTGCGA | 1.25
AACGAGGCGC | 0.984
ACAATGTCAC | 1.04
GCCGGGACTC | 0.964
GCACAATCGT | 1.01
GAGCGTGTGT | 1.03
TTTGCTCGTC | 1.09
ATGAAGAGAC | 0.996
TTGCGGGAAA | 1.02
CGTTGCCCGT | 1.02
AGTTAGAGTT | 0.992
GATAGTGATC | 1.04
AACCATGTGC | 0.987
AAAATAGTAC | 1.04
CAAAGGTTAT | 0.978

Sequence | switch fluorescence ratio
GGCATTTTGT | 0.999
AAAAACAGCA | 1.01
AATGGGTGCC | 1.01
GTTGGCAACC | 1.01
ACTCCCGGTA | 1.53
CGTCTTTATA | 1
TGTCGTATGC | 1.06
TGCGCTATTA | 1.03
TCGATATTGT | 0.965
TGTCCGATTT | 0.956
ATTAGGGTAC | 1.01
AATTCTATGG | 1.01
GTGTGCACAC | 1.01
ACAATGCGAG | 1.1
GCACCCCACG | 1.54
CGGGGTGGCA | 0.974
ACTGAGGTCG | 1.06
TCTGCACCTC | 1.33
CCACAATTAG | 1.7
CCGGAGGCCA | 1.29
CTTTCCGCGG | 1.34
AGGCTAAACT | 1.03
ACTCTTCTTT | 1.01
ATTCTGATTC | 0.976
CACGTGGGCT | 1.1
GTGTAGAATC | 1.02

Sequence | switch fluorescence ratio
GATAAATTGG | 1.06
AGCGTATAAG | 0.973
TGACTGATCA | 0.999
TTGCGCCG | 1.01
TTTTCACAT | 0.996
AGAAACGCT | 1.03
AGGCTCGAGA | 1.03
GTCTATATAT | 0.997
TTCTGAGCG | 1.01
AACCTCATAC | 1.62
GGCGTATGGG | 0.979
GCTACCATG | 0.994
CGTCTGTCGA | 1.06
CTTGACATTA | 1.03
AGACGTGGGC | 1.05
GCGATTGAAG | 0.967
CGGCAAACCA | 1
GACGTCCTTT | 0.989
TATCACGTAG | 1.07
ATATCACACT | 1.01
AACTATCCCA | 1.16
CAAATGTTC | 0.995
CCATCTGGGC | 1.01
AGGGTGATAA | 1.01
GAGTGAGATA | 1
TGTACGCTAA | 4.25

Sequence | switch fluorescence ratio
ACGGAACTGG | 1.11
CCTCTCGAG | 1.4
CAGGAACATG | 0.963
GTTGGTTGTC | 1.14
TTGCATATGG | 0.988
CAATGCGTC | 1.01
TGATGTCCGC | 1.42
TAAGGTATAT | 1.01
GGGAGAGGTC | 1.07
AGGGACGTCC | 1.04
ACCACTCAGG | 1.22
TCGGCAACGG | 1.02
TGCACGCGGA | 0.999
GATCCCGGTT | 1.02
ACGTGGTGGC | 0.969
TTGCTTTACC | 0.99
TTCAAGGCGA | 1.06
TCTACCAAAA | 1.04
AACTGACGGG | 1.26
CGTTCGCATG | 2.3
CTGGCCAAGC | 1.04
TTCTCACAGG | 1.01
GCTCGACCTA | 1.02
